# In the supplement of paper PMC8728848:
# The other results are listed elsewhere or left out.
# B1: GS7807P-bth-537-23-537 (Bacteroides thetaiotaomicron) (protein)
# chain: NYENINSNPYEAPDLSADGYALGSAMNNLAGCVVSPDVNTAQFTDCLLGGPLGGYFADSNAGFTETISNFNPKDDWSRVFLKSDKIIPTLYSNLTQVKLVSQNTNDPVPYAIAQVIKVAAMHRVTDAFGPIPYSQIGANGEIATPYDSQEVTYNTFFDELNAAIATLNENSNEQLVPTADYIYKGDVKKWIRFANSLKLRLAIRIAYANPVKAQQMAEEAVNPANGGVIESNADNATWNYFETSQNPIYVATRYNQVQTSDHGGVPCLTGGDTHAAADIICYMNGYKDNRREKFFTKSEWAGQDYVGMRRGIVIPELKTTGHKYSGVNIAPTSPLYWMNAAEVAFLRAEGQAVFNFSMGGTAESFYNQGIRLSFEQWGADGVEDYLKDDVNKPTAYTDPAGTNTYQNALSNITIKWNDSADKEEKQERIIVQKWIANWQLGNEAWADFRRTGYPKLIPVKENKSGGVVDSEKGARRMPYPLDEFVSNKANVEYAIANYLHGADNMATDVWWASKK
# How the values were obtained:
# Test in all cases: glycan array binding signal (z-score within array); higher = stronger binding
# Conditions in all cases: glycan notation: IUPAC condensed, linker removed
# [1] = target: GlcNAc(b1-2)[GlcNAc(b1-4)]Man(a1-3)[GlcNAc(b1-4)][GlcNAc(b1-2)[GlcNAc(b1-6)]Man(a1-6)]Man(b1-4)GlcNAc(b1-4)GlcNAc
# Method in brief: (§1)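 Arrays were curated from the Consortium for Functional Glycomics database, 3228 in total, and kept only where the protein sequence was available. Binding is expressed as a within-array Z-score. This score was averaged across arrays of the same protein sequence at different concentrations or buffers and across linkers, and negative values can be read as non-binding.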
# [2] = target: GlcNAc(b1-2)[GlcNAc(b1-4)]Man(a1-3)[GlcNAc(b1-4)][GlcNAc(b1-2)[GlcNAc(b1-6)]Man(a1-6)]Man(b1-4)GlcNAc(b1-4)[Fuc(a1-6)]GlcNAc
# Method in brief: as §1
# [3] = target: GlcNAc(b1-2)[GlcNAc(b1-6)]Man(a1-6)[GlcNAc(b1-2)Man(a1-3)]Man(b1-4)GlcNAc(b1-4)GlcNAc
# Method in brief: as §1
# [4] = target: GlcNAc(b1-2)[GlcNAc(b1-6)]Man(a1-6)[GlcNAc(b1-2)Man(a1-3)]Man(b1-4)GlcNAc(b1-4)[Fuc(a1-6)]GlcNAc
# Method in brief: as §1
# [5] = target: GlcNAc(b1-2)[GlcNAc(b1-6)]Man(a1-6)[GlcNAc(b1-4)][GlcNAc(b1-2)Man(a1-3)]Man(b1-4)GlcNAc(b1-4)GlcNAc
# Method in brief: as §1
# GlcNAc(b1-3)Fuc = target: GlcNAc(b1-3)Fuc
# Method in brief: as §1
# GlcNAc(b1-3)Gal = target: GlcNAc(b1-3)Gal
# Method in brief: as §1
# [6] = target: GlcNAc(b1-3)Gal(b1-3)GalNAc
# Method in brief: as §1
# GlcNAc(b1-3)Gal(b1-4)Glc = target: GlcNAc(b1-3)Gal(b1-4)Glc
# Method in brief: as §1
# [7] = target: GlcNAc(b1-3)Gal(b1-4)GlcNAc
# Method in brief: as §1
# [8] = target: GlcNAc(b1-3)Gal(b1-4)GlcNAc(b1-2)Man(a1-3)[GlcNAc(b1-3)Gal(b1-4)GlcNAc(b1-2)Man(a1-6)]Man(b1-4)GlcNAc(b1-4)GlcNAc
# Method in brief: as §1
# [9] = target: GlcNAc(b1-3)Gal(b1-4)GlcNAc(b1-2)Man(a1-3)[GlcNAc(b1-3)Gal(b1-4)GlcNAc(b1-2)Man(a1-6)]Man(b1-4)GlcNAc(b1-4)[Fuc(a1-6)]GlcNAc
# Method in brief: as §1
# [10] = target: GlcNAc(b1-3)Gal(b1-4)GlcNAc(b1-2)[GlcNAc(b1-3)Gal(b1-4)GlcNAc(b1-6)]Man(a1-6)[GlcNAc(b1-3)Gal(b1-4)GlcNAc(b1-2)Man(a1-3)]Man(b1-4)GlcNAc(b1-4)GlcNAc
# Method in brief: as §1
# [11] = target: GlcNAc(b1-3)Gal(b1-4)GlcNAc(b1-3)Gal(b1-4)GlcNAc
# Method in brief: as §1
# [12] = target: GlcNAc(b1-3)Gal(b1-4)GlcNAc(b1-3)Gal(b1-4)GlcNAc(b1-2)Man(a1-3)[GlcNAc(b1-3)Gal(b1-4)GlcNAc(b1-3)Gal(b1-4)GlcNAc(b1-2)Man(a1-6)]Man(b1-4)GlcNAc(b1-4)GlcNAc
# Method in brief: as §1
# [13] = target: GlcNAc(b1-3)Gal(b1-4)GlcNAc(b1-3)Gal(b1-4)GlcNAc(b1-2)Man(a1-3)[GlcNAc(b1-3)Gal(b1-4)GlcNAc(b1-3)Gal(b1-4)GlcNAc(b1-2)Man(a1-6)]Man(b1-4)GlcNAc(b1-4)[Fuc(a1-6)]GlcNAc
# Method in brief: as §1
# [14] = target: GlcNAc(b1-3)Gal(b1-4)GlcNAc(b1-3)Gal(b1-4)GlcNAc(b1-2)[GlcNAc(b1-3)Gal(b1-4)GlcNAc(b1-3)Gal(b1-4)GlcNAc(b1-6)]Man(a1-6)[GlcNAc(b1-3)Gal(b1-4)GlcNAc(b1-3)Gal(b1-4)GlcNAc(b1-2)Man(a1-3)]Man(b1-4)GlcNAc(b1-4)[Fuc(a1-6)]GlcNAc
# Method in brief: as §1
# [15] = target: GlcNAc(b1-3)Gal(b1-4)GlcNAc(b1-3)Gal(b1-4)GlcNAc(b1-3)Gal(b1-4)GlcNAc(b1-2)Man(a1-3)[GlcNAc(b1-3)Gal(b1-4)GlcNAc(b1-3)Gal(b1-4)GlcNAc(b1-3)Gal(b1-4)GlcNAc(b1-2)Man(a1-6)]Man(b1-4)GlcNAc(b1-4)GlcNAc
# Method in brief: as §1
# [16] = target: GlcNAc(b1-3)Gal(b1-4)GlcNAc(b1-3)Gal(b1-4)GlcNAc(b1-3)Gal(b1-4)GlcNAc(b1-2)Man(a1-3)[GlcNAc(b1-3)Gal(b1-4)GlcNAc(b1-3)Gal(b1-4)GlcNAc(b1-3)Gal(b1-4)GlcNAc(b1-2)Man(a1-6)]Man(b1-4)GlcNAc(b1-4)[Fuc(a1-6)]GlcNAc
# Method in brief: as §1
# [17] = target: GlcNAc(b1-3)Gal(b1-4)GlcNAc(b1-3)Gal(b1-4)GlcNAc(b1-3)Gal(b1-4)GlcNAc(b1-2)[GlcNAc(b1-3)Gal(b1-4)GlcNAc(b1-3)Gal(b1-4)GlcNAc(b1-3)Gal(b1-4)GlcNAc(b1-6)]Man(a1-6)[GlcNAc(b1-3)Gal(b1-4)GlcNAc(b1-3)Gal(b1-4)GlcNAc(b1-3)Gal(b1-4)GlcNAc(b1-2)Man(a1-3)]Man(b1-4)GlcNAc(b1-4)[Fuc(a1-6)]GlcNAc
# Method in brief: as §1
# [18] = target: GlcNAc(b1-3)Gal(b1-4)GlcNAc(b1-3)Gal(b1-4)GlcNAc(b1-3)Gal(b1-4)GlcNAc(b1-3)Gal(b1-4)GlcNAc(b1-2)Man(a1-3)[GlcNAc(b1-3)Gal(b1-4)GlcNAc(b1-3)Gal(b1-4)GlcNAc(b1-3)Gal(b1-4)GlcNAc(b1-3)Gal(b1-4)GlcNAc(b1-2)Man(a1-6)]Man(b1-4)GlcNAc(b1-4)GlcNAc
# Method in brief: as §1
# [19] = target: GlcNAc(b1-3)Gal(b1-4)GlcNAc(b1-3)Gal(b1-4)GlcNAc(b1-3)Gal(b1-4)GlcNAc(b1-3)Gal(b1-4)GlcNAc(b1-2)Man(a1-3)[GlcNAc(b1-3)Gal(b1-4)GlcNAc(b1-3)Gal(b1-4)GlcNAc(b1-3)Gal(b1-4)GlcNAc(b1-3)Gal(b1-4)GlcNAc(b1-2)Man(a1-6)]Man(b1-4)GlcNAc(b1-4)[Fuc(a1-6)]GlcNAc
# Method in brief: as §1
# [20] = target: GlcNAc(b1-3)Gal(b1-4)GlcNAc(b1-3)Gal(b1-4)GlcNAc(b1-3)Gal(b1-4)GlcNAc(b1-3)Gal(b1-4)GlcNAc(b1-2)[GlcNAc(b1-3)Gal(b1-4)GlcNAc(b1-3)Gal(b1-4)GlcNAc(b1-3)Gal(b1-4)GlcNAc(b1-3)Gal(b1-4)GlcNAc(b1-6)]Man(a1-6)[GlcNAc(b1-3)Gal(b1-4)GlcNAc(b1-3)Gal(b1-4)GlcNAc(b1-3)Gal(b1-4)GlcNAc(b1-3)Gal(b1-4)GlcNAc(b1-2)Man(a1-3)]Man(b1-4)GlcNAc(b1-4)[Fuc(a1-6)]GlcNAc
# Method in brief: as §1
# [21] = target: GlcNAc(b1-3)Gal(b1-4)GlcNAc(b1-3)Gal(b1-4)GlcNAc(b1-3)GalNAc
# Method in brief: as §1
# [22] = target: GlcNAc(b1-3)Gal(b1-4)GlcNAc(b1-3)GalNAc
# Method in brief: as §1
# [23] = target: GlcNAc(b1-3)Gal(b1-4)GlcNAc(b1-3)[GlcNAc(b1-3)Gal(b1-4)GlcNAc(b1-3)]GalNAc
# Method in brief: as §1
# [24] = target: GlcNAc(b1-3)Gal(b1-4)GlcNAc(b1-6)[Gal(b1-3)]GalNAc
# Method in brief: as §1
# [25] = target: GlcNAc(b1-3)Gal(b1-4)GlcNAc(b1-6)[GlcNAc(b1-3)Gal(b1-3)]GalNAc
# Method in brief: as §1
# [26] = target: GlcNAc(b1-3)Gal(b1-4)GlcNAc(b1-6)[GlcNAc(b1-3)]Gal(b1-4)GlcNAc
# Method in brief: as §1
# GlcNAc(b1-3)GalNAc = target: GlcNAc(b1-3)GalNAc
# Method in brief: as §1
# GlcNAc(b1-3)Man = target: GlcNAc(b1-3)Man
# Method in brief: as §1
# [27] = target: GlcNAc(b1-3)[GlcNAc(b1-4)][GlcNAc(b1-6)]GlcNAc
# Method in brief: as §1
# [28] = target: GlcNAc(b1-3)[GlcNAc(b1-6)]Gal(b1-4)GlcNAc
# Method in brief: as §1
# [29] = target: GlcNAc(b1-3)[GlcNAc(b1-6)]GalNAc
# Method in brief: as §1
# [30] = target: GlcNAc(b1-4)Gal(b1-4)GlcNAc
# Method in brief: as §1
# GlcNAc(b1-4)GlcNAc = target: GlcNAc(b1-4)GlcNAc
# Method in brief: as §1
# [31] = target: GlcNAc(b1-4)GlcNAc(b1-4)GlcNAc
# Method in brief: as §1
# [32] = target: GlcNAc(b1-4)GlcNAc(b1-4)GlcNAc(b1-4)GlcNAc(b1-4)GlcNAc
# Method in brief: as §1
binder,measurement,setting,value
B1,glycan array binding signal (z-score),[1],-0.37
same,glycan array binding signal (z-score),[2],-0.348
same,glycan array binding signal (z-score),[3],-0.243
same,glycan array binding signal (z-score),[4],-0.312
same,glycan array binding signal (z-score),[5],-0.36
same,glycan array binding signal (z-score),GlcNAc(b1-3)Fuc,-0.366
same,glycan array binding signal (z-score),GlcNAc(b1-3)Gal,-0.377
same,glycan array binding signal (z-score),[6],-0.351
same,glycan array binding signal (z-score),GlcNAc(b1-3)Gal(b1-4)Glc,-0.364
same,glycan array binding signal (z-score),[7],-0.368
same,glycan array binding signal (z-score),[8],-0.376
same,glycan array binding signal (z-score),[9],-0.053
same,glycan array binding signal (z-score),[10],-0.129
same,glycan array binding signal (z-score),[11],-0.286
same,glycan array binding signal (z-score),[12],-0.085
same,glycan array binding signal (z-score),[13],-0.308
same,glycan array binding signal (z-score),[14],19.1
same,glycan array binding signal (z-score),[15],-0.354
same,glycan array binding signal (z-score),[16],0.119
same,glycan array binding signal (z-score),[17],-0.226
same,glycan array binding signal (z-score),[18],0.265
same,glycan array binding signal (z-score),[19],-0.32
same,glycan array binding signal (z-score),[20],0.291
same,glycan array binding signal (z-score),[21],-0.35
same,glycan array binding signal (z-score),[22],-0.088
same,glycan array binding signal (z-score),[23],-0.331
same,glycan array binding signal (z-score),[24],-0.249
same,glycan array binding signal (z-score),[25],-0.316
same,glycan array binding signal (z-score),[26],-0.326
same,glycan array binding signal (z-score),GlcNAc(b1-3)GalNAc,-0.323
same,glycan array binding signal (z-score),GlcNAc(b1-3)Man,-0.38
same,glycan array binding signal (z-score),[27],-0.249
same,glycan array binding signal (z-score),[28],-0.37
same,glycan array binding signal (z-score),[29],-0.355
same,glycan array binding signal (z-score),[30],-0.392
same,glycan array binding signal (z-score),GlcNAc(b1-4)GlcNAc,-0.39
same,glycan array binding signal (z-score),[31],-0.326
same,glycan array binding signal (z-score),[32],-0.365
